Structures are written as SMILES. “And” between values parts separate entries of the source, which are not always exact repeats. Identical values can stand only once. Screen size: about 45,000 compounds; about 200 (0.44%) were called active. Roughly 7% stayed inconclusive and do not appear here. Calls come from the whole dose curve; as a rule, active = well fitted activation curve with a large enough effect; inconclusive = small, poorly fitted or top-dose-only effect; inactive = no such curve, though single readings can be large or run the other way. Some of the results follow.

A short description of this assay: qHTS of TDP-43 Inhibitors: NCGC Sytravon Library Screen. Note: 0% is about no effect; nearly all actives have a fitted effect of over 55% in size. To be noted: yeast TDP-43 toxicity rescue, BacTiter-Glo growth, 24 h; at 46.1 µM (top of the series). An outline of the steps: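 TDP-43-expressing yeast, pregrown in raffinose, seeded at OD600 0.02 in galactose medium with compound for 24 hr at 30 deg C. Growth read by BacTiter-Glo luminescence, so rescue of toxicity appears as activation.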
In the case of `O=C1CN=C(c2cccc(Br)c2)c2cc(Br)ccc2N1`, the growth rescue (activation) is inactive: -10.1%.
The result for `O=c1[nH]c(=S)[nH]c(O)c1N=Nc1ccc2c(c1)OCCO2` reads inactive: -20.6%.
Take `O=C(O)COc1ccccc1/C=C1\C(=O)NC(=O)N(CCC2=CCCCC2)C1=O`: the growth rescue (activation) was inactive: 7.11%.
The result for `O=C(c1ccccc1F)N1CCC2(CC1)OCCO2` reads inactive: 1.21%.
With `Cc1cccn2c(=O)c3c(nc12)N1CCCCC1C1(C3)C(=O)N(C)C(=O)N(C)C1=O` (stereo not drawn), the growth rescue (activation) was inactive: 12.6%.
The result for `Cc1ccc2c(CN3CC=C(c4ccccc4)CC3)cc(=O)oc2c1C` reads inactive: -15.2%; that for `CC[C@]12C=CCN3CCC4(c5cc(Br)c(OC)cc5N(C)C4[C@@](O)(C(=O)OC)[C@@H]1OC(C)=O)C32` (stereo partly drawn), inactive: -4.65%; that for `COc1ccc(-n2nc(C(=O)NCC(=O)N3CCC4(CC3)OCCO4)c3ccccc3c2=O)cc1OC`, inactive: 3.96%.
The result for `Cc1ccc(NP(=O)(Oc2ccccc2)Oc2ccccc2)cc1` reads inactive: -9.9%; that for `O=C(Nc1ccc(Br)cc1C(=O)c1ccccc1Cl)c1ccccc1F`, inactive: -4.09%.
The result for `C/C(=N\NP(=S)(c1ccccc1)c1ccccc1)c1ccc(O)cc1O` reads inactive: 8.57%.
On to `O=Cc1c(C(=O)O)n(Cc2ccccc2F)c2ccccc12`, for which the growth rescue (activation) was inactive: 0.0297%.
The result for `CCCn1cc(C(=O)O)cn1` reads inactive: -23.5%; that for `Cc1c2cnn(CC(=O)N3CCC4(CC3)OCCO4)c(=O)c2c(C)n1Cc1ccccc1`, inactive: 12.3%; that for `COc1ccc(CCn2c(O)c(C=Nc3ccccc3F)c(=O)[nH]c2=O)cc1OC`, inactive: 6.67%.
As for `O=C(O)C1C2c3ccccc3C(c3ccccc32)C1C(=O)Nc1ccccc1` (stereo not drawn), the growth rescue (activation) is inactive: 5.61%.
The result for `CCOC(=O)CSCCOc1ccc(C=C2C(=O)NC(=O)NC2=O)cc1OC` reads inactive: 10.8%.
As to `CC1CN=C(NCc2ccncc2)S1` (stereo not drawn), the growth rescue (activation) was inactive: -10.6%.
The result for `COc1ccc(C(=O)C2CCCN(Cc3ccon3)C2)c(OC)c1` (stereo not drawn) reads inactive: -6.86%; that for `O=c1[nH]c(O)c(C=NC2CCCCC2)c(=O)[nH]1`, inactive: -6.75%; that for `Cc1ccccc1CN1CCCN(Cc2ccc(Cl)cc2)S1(=O)=O`, inactive: 5.52%.
For the molecule `CCCC[N+]12CCC(CC1)C(C(O)(c1ccccc1)c1ccccc1)C2` (stereo not drawn), the growth rescue (activation) is inactive: 8.22%.
The result for `O=c1c2ccccc2nc(/C=C/c2ccccc2O)n1-c1ccc(Br)cc1` reads inactive: -1.59%; that for `N=C1c2ccccc2CN1NC(=O)c1ccco1`, inactive: 14.1%.
For `COc1cc(/C=C(/C)[N+](=O)[O-])ccc1OCc1ccccc1Cl`, the growth rescue (activation) is inactive: 29.2%.
The result for `O=C(Cc1ccccc1[N+](=O)[O-])N1CCN(Cc2ccc3c(c2)OCO3)CC1` reads inactive: -0.633%; that for `Clc1ccccc1C1NCc2ccccc2-n2cccc21` (stereo not drawn), inactive: 8.57%.
The result for `CSc1ccc(CNC(C)C(O)c2ccccc2)cc1` (stereo not drawn) reads inactive: 4.45%; that for `O=[N+]([O-])c1ccc(N2CCNCC2)cc1Sc1ccccn1`, inactive: 3.46%; that for `CC(C)N1CCN(Cc2cc3c(cc2Cl)OCO3)CC1CCO` (stereo not drawn), inactive: -1.83%.
The result for `C[C@]12CCC3C(CC[C@H]4C[C@H](O)CC[C@]34C)C1C[C@@H](O)[C@@H]2O` (stereo partly drawn) reads inactive: -7.18%; that for `O=C1CSC2(CN3CCC2CC3)N1` (stereo not drawn), inactive: 22.4%.
`Cn1c(C(=O)O)c(CC(=O)N2CCN(Cc3ccccc3)CC2)c2ccccc21`: the growth rescue (activation) was inactive: 17.6%.
On to `CN1c2ccc([N+](=O)[O-])cc2CC2(C(=O)NC(=O)N(c3ccc(Br)cc3)C2=O)C1c1ccccc1` (stereo not drawn), for which the growth rescue (activation) is inactive: -3.88%.
Turning to `N=C1c2ccccc2CN1CC(=O)c1ccccc1`, the growth rescue (activation) is inactive: -14.9%.
The result for `COc1cc2c(C(=O)N3CCN(C)CC3)c(C)n(C)c2cc1Br` reads inactive: -4.8%.
The result for `CC(=O)N1CC(=O)Nc2ccc(Cl)cc2C1c1ccccc1` (stereo not drawn) reads inactive: -2.01%.
The result for `Cc1cc(Br)c(NC(=O)CN2CC=C(c3ccccc3)CC2)c(Br)c1` reads inactive: 13.2%.
`Cc1ccc(NC(=S)NCCc2cnc[nH]2)cc1C`: the growth rescue (activation) was inactive: -5.36%.
Turning to `Cc1c2cnn(CC(=O)N3CCC4(CC3)OCCO4)c(=O)c2c(C)n1Cc1ccccc1F`, the growth rescue (activation) was inactive: -4.17%.
The result for `O=C1CN(C(=O)COC(=O)Cc2ccccc2)c2ccccc2N1` reads inactive: 5.46%.
The result for `C#C[C@]1(O)CCC2C3C(=O)C=C4C(Cl)=CCC[C@]4(C)C3CC[C@@]21C` (stereo partly drawn) reads inactive: 1.35%.
The result for `O=C(NC1CCCCC1)Oc1cc2oc(=O)sc2cc1Cl` reads inactive: -56.9%; that for `CCn1ccnc1CN1CCCC(C(=O)c2ccc(OC)cc2OC)C1` (stereo not drawn), inactive: 3.58%; that for `C[C@]12CC[C@H](O)CC1=C([N+](=O)[O-])CC1C2CC[C@@]2(C)C1CC[C@@H]2O` (stereo partly drawn), inactive: -5.61%.
On to `CN(C)c1ccc(/C=C2/C(=N\O)C3CCN2CC3)cc1`, for which the growth rescue (activation) is inactive: 0.153%.
The result for `O=C1NC(=O)N(c2ccc(F)cc2)C(=O)/C1=C/c1ccsc1` reads inactive: 15.8%.
The result for `Cc1ccccc1-n1c(/C=C/c2ccc(O)cc2)nc2ccccc2c1=O` reads inactive: 17.3%; that for `O=C(O)c1ccc(/C=C/c2nc3ccccc3c(=O)n2-c2ccc(Br)cc2)cc1`, inactive: 0.26%; that for `c1cncc(CNC2CCCC2)c1`, inactive: -6.11%.
The result for `Oc1ccc(C[C@H]2NCCc3cc(O)c(O)cc32)cc1O` reads inactive: 5.05%; that for `C[C@]12CCC3C(CC[C@H]4[C@H](O)[C@H](O)CC[C@]34C)C1CCC2=O` (stereo partly drawn), inactive: 18.6%; that for `C[C@]12CCC3C(CC[C@H]4C[C@H](O)CC[C@]34C)C1CC(=O)[C@@H]2O` (stereo partly drawn), inactive: 35%.
Turning to `O=C(Nc1ccccc1)c1c(O)c2c(n(Cc3ccco3)c1=O)CCCC2`, the growth rescue (activation) was inactive: -18.1%.
The result for `Cc1ccc(OCC(=O)N2CCN(Cc3ccc4c(c3)OCO4)CC2)cc1C` reads inactive: -4.53%; that for `CC1=C[C@@H]2c3cccc4[nH]cc(c34)C[C@H]2N(C)C1`, inactive: -1.2%; that for `Cc1ccc2c(c1)C1CN(C)CCC1N2C(=O)CCCN1C(=O)c2cccc3cccc(c23)C1=O` (stereo not drawn), inactive: 4.65%.
On to `N=c1sccn1Cc1ccccc1F`, for which the growth rescue (activation) is inactive: -3.23%.
The result for `CN(C)c1ccc(/C=C/c2cc[n+](C)c3ccccc23)cc1` reads inactive: -27.9%; that for `O=c1[nH]c(=O)n(-c2cccc(Cl)c2)c(O)c1C=NCCCN1CCOCC1`, inactive: 11.9%; that for `O=C(c1c[nH]c2ccc(S(=O)(=O)N3CCOCC3)cc2c1=O)N1CCC2(CC1)OCCO2`, inactive: 6.63%.
`CCOP(=O)(OCC)C(NC(=O)c1ccc(OC)cc1)C(Cl)(Cl)Cl` (stereo not drawn): the growth rescue (activation) was inactive: -0.704%.
The result for `COCc1ccc(CN2CCCC(C(=O)c3sccc3C)C2)o1` (stereo not drawn) reads inactive: 0.892%; that for `CC[n+]1c(SC)ccc2cc(OC)ccc21`, inactive: -8.14%.
The result for `COCCCn1c(N)c(C(=O)Nc2ccccc2)c2nc3ccccc3nc21` reads inactive: 8.08%; that for `O=c1cccc2n1CC1CC2CN(S(=O)(=O)c2cc(Cl)ccc2Cl)C1` (stereo not drawn), inactive: 9.03%; that for `C=CCn1c(O)c(C(C)=NCCCn2ccnc2)c(=O)[nH]c1=O`, inactive: 5.99%.
For `O=C(CCC(=O)N1CCC2(CC1)OCCO2)Nc1nnc(C2CCCCC2)s1`, the growth rescue (activation) is inactive: 11.5%.
The result for `CCCCn1c(O)c(C=NCCCN(CC)CC)c(=O)[nH]c1=O` reads inactive: 8.07%; that for `COc1ccc(CC2C(=O)N(C)C(=O)N(C)C2=O)c(OC)c1`, inactive: -14.8%.
The result for `CC12CN3CCN(CC(C3)/C1=N/NC(N)=O)C2` reads inactive: 5.2%; that for `CN1CCN(CC(=O)Nc2ccc([N+](=O)[O-])cc2C(=O)c2ccccc2)CC1`, inactive: 5.75%.
The result for `CN(CCc1ccccc1)Cc1ccccc1[N+](=O)[O-]` reads inactive: 20.7%.
Turning to `Cc1ccc(-n2c(/C=C/c3cccs3)nc3ccccc3c2=O)cc1C`, the growth rescue (activation) is inactive: 2.36%.
Take `OCCN(CC#CC(O)(c1ccccc1)C1CCCC1)CCO` (stereo not drawn): the growth rescue (activation) was inactive: 1.6%.
The result for `Nc1ccc2nonc2c1[N+](=O)[O-]` reads inactive: 3.6%; that for `O=C(N/N=C/c1c(O)n(CCC2=CCCCC2)c(=O)[nH]c1=O)c1ccccc1`, inactive: 6.29%.
The result for `COc1ccc(-n2c(O)c(C=NCc3ccc4c(c3)OCO4)c(=O)[nH]c2=O)cc1` reads inactive: 10.7%.
The result for `CC(=NCC1CCCO1)c1c(O)n(-c2ccccc2)c(=O)[nH]c1=O` (stereo not drawn) reads inactive: -12%; that for `C/C(=N\Nc1ccccc1)c1c(O)n(Cc2ccccc2)c(=O)[nH]c1=O`, inactive: -7.1%; that for `CCCC(=O)NC(Oc1ccc(OC)cc1)C(Cl)(Cl)Cl` (stereo not drawn), inactive: 4.62%.
Regarding `C[C@]12CCC3C(CC[C@H]4C[C@H](O)CC[C@]34C)C1[C@@H](O)C[C@@H]2O` (stereo partly drawn), the growth rescue (activation) is inactive: 3.03%.
Take `c1ccc(-c2cc(-c3ccccc3)[n+](-c3ccccc3)c(-c3ccccc3)c2)cc1`: the growth rescue (activation) was inactive: -23.9%.
Consider `CSc1ccc(CN2CCN(C(=O)COc3ccc(C)cc3)CC2)cc1`, for which the growth rescue (activation) was inactive: 6.3% and inactive: -24.6%.
The result for `O=C1/C(=C/c2ccncc2)N2CCC1CC2` reads inactive: 1.5%.
The result for `Cc1ccc(CN2CCN(Cc3ccccc3F)CC2)cc1` reads inactive: -1.12%; that for `CCC(=O)Nc1cc(C(=O)N2CCC3(CC2)OCCO3)ccc1S(=O)(=O)c1ccc(C)cc1`, inactive: -33.3%.
The result for `O=c1[nH]c(=O)n(CCc2ccccc2)c(O)c1C=NC1CC1` reads inactive: 11.5%; that for `CCOC(=O)c1cc(CC)sc1/N=C/C1C(=O)NC(=S)NC1=O`, inactive: 12.3%; that for `Nc1ccccc1C(=O)OCC(=O)N1CCc2ccccc21`, inactive: 31%.
Consider `CCCC(C)n1[nH]c(=O)c2c1NC(=O)CSC2c1ccccc1` (stereo not drawn), for which the growth rescue (activation) is inactive: 13.2%.
The result for `O=c1[nH]c(=O)n(Cc2ccc(F)cc2)c(O)c1C=Nc1ccc(Cl)cc1` reads inactive: -3.18%; that for `CN1C(=O)C(=Cc2cn(CC(=O)N3CCCC3)c3ccccc23)C(=O)N(C)C1=O`, inactive: 5.95%.

These data come from PubChem BioAssay AID1347073 (National Center for Advancing Translational Sciences (NCATS), 2019).
